Results reported in publication PMC5892938.
The list shows a part of the results. At the low end of the ranking the order means little.

biological target: GST-SBP-SLBP (stem-loop binding protein) (UniProt Q14493); experiment: targeted RNA Bind-n-Seq; conditions: RBNS binding buffer: 25 mM Tris pH 7.5, 150 mM KCl, 3 mM MgCl2, 0.1% Tween, 0.5 mg/mL BSA, 1 mM DTT; 27 nM protein, 750 pM RNA pool; temperature not stated; high values mean tight binding;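 also: DESeq read counts versus GST-SBP nonspecific binding control pulldown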

| Sequence | binding signal (log2 fold change) |
| --- | --- |
| GGUCACGUCUCAAUCAACUCAUCGCCAGGAGUUUCCUCCUGUUAAUUCAACAGCUCGCAGUCAAG | 0.00848 |
| GGUCACGUCUCAAUCAACUCAUACGAGGGGGGGAAAACCCCUUUACCCUCCAAAUCAACAGCUCGCAGUCAAG | 0.209 |
| GGUCACGUCUCAAUCAACUCCCUAGAGGGGGGGAAAACCCCUUUACCCUCGUUAUCAACAGCUCGCAGUCAAG | 0.277 |
| GGUCACGUCUCAAUCAACUCUUUCUCAGGAGUUUCCUCCUGUUUUUUCAACAGCUCGCAGUCAAG | -0.0698 |
| GGUCACGUCUCAAUCAACUCCAUAGAGGGGGGGAAAACCCCUUUGCCCUCCAUAUCAACAGCUCGCAGUCAAG | 0.0149 |
| GGUCACGUCUCAAUCAACUCAAUCCCCAGGGAAACCCCUGGCUAUCUCAACAGCUCGCAGUCAAG | -0.232 |
| GGUCACGUCUCAAUCAACUCAUCUCCAGGAGUUUACUCCUGCUAUUUCAACAGCUCGCAGUCAAG | 0.208 |
| GGUCACGUCUCAAUCAACUCUAACGAGGGGGGGAAAACCCCUUUACCCUCAAUCUCAACAGCUCGCAGUCAAG | -0.0951 |
| GGUCACGUCUCAAUCAACUCAUUCUCAGGAGUUUACUCCUGUUAUUUCAACAGCUCGCAGUCAAG | 0.117 |
| GGUCACGUCUCAAUCAACUCACUAGAGGGGGGGAAAACCCCUUUGCCCUCAUUUUCAACAGCUCGCAGUCAAG | -0.499 |
| GGUCACGUCUCAAUCAACUCAUUCUCCAGGGAAAUCCCUGGCAAUUUCAACAGCUCGCAGUCAAG | 0.138 |
| GGUCACGUCUCAAUCAACUCACUCGAGGGGGGGAAAACCCCUUUACCCUCAAUCUCAACAGCUCGCAGUCAAG | -0.0651 |
| GGUCACGUCUCAAUCAACUCUAUCCCCAGGGAAAUCCCUGGUAUAUUCAACAGCUCGCAGUCAAG | 0.333 |
| GGUCACGUCUCAAUCAACUCUAUCCCCAGGGAAAUCCCUGGUAAUCUCAACAGCUCGCAGUCAAG | 0.0242 |
| GGUCACGUCUCAAUCAACUCAUCUUCAGGAGUUUGCUCCUGCUAAUUCAACAGCUCGCAGUCAAG | 0.0374 |
| GGUCACGUCUCAAUCAACUCUUCUCCCAGGGAAAACCCUGGCUAUGUCAACAGCUCGCAGUCAAG | 0.00526 |
| GGUCACGUCUCAAUCAACUCAUCUCCCAGGGAAAGCCCUGGCAAACUCAACAGCUCGCAGUCAAG | -0.242 |
| GGUCACGUCUCAAUCAACUCAUAAGAGGGGGGGAAAACCCCUUUGCCCUCAUCGUCAACAGCUCGCAGUCAAG | -0.386 |
| GGUCACGUCUCAAUCAACUCAAUCUCAGGAGUUUACUCCUGCUUUCUCAACAGCUCGCAGUCAAG | 0.0323 |
| GGUCACGUCUCAAUCAACUCAUAAGAGGGGGGGAAAACCCCUUUACCCUCAAUUUCAACAGCUCGCAGUCAAG | 0.0805 |
| GGUCACGUCUCAAUCAACUCCCAAGAGGGGGGGAAAACCCCUUUGCCCUCAUAAUCAACAGCUCGCAGUCAAG | 0.212 |
| GGUCACGUCUCAAUCAACUCAACUCCCAGGGAAAACCCUGGCAAAUUCAACAGCUCGCAGUCAAG | -0.0878 |
| GGUCACGUCUCAAUCAACUCUACUUCCAGGGAAAACCCUGGUAAUUUCAACAGCUCGCAGUCAAG | -0.0271 |
| GGUCACGUCUCAAUCAACUCUAUUCCCAGGGAAAUCCCUGGCAAAUUCAACAGCUCGCAGUCAAG | -0.0692 |

| Sequence | binding signal (log2 fold change) |
| --- | --- |
| GGUCACGUCUCAAUCAACUCAAUCCCCAGGGAAAGCCCUGGUUUUCUCAACAGCUCGCAGUCAAG | 0.0482 |
| GGUCACGUCUCAAUCAACUCAUAAGAGGGGGGGAAAACCCCUUUGCCCUCACCAUCAACAGCUCGCAGUCAAG | -0.156 |
| GGUCACGUCUCAAUCAACUCUACUUCCAGGGAAACCCCUGGCAAACUCAACAGCUCGCAGUCAAG | 0.0186 |
| GGUCACGUCUCAAUCAACUCCACAGAGGGGGGGAAAACCCCUUUGCCCUCCAUAUCAACAGCUCGCAGUCAAG | 0.437 |
| GGUCACGUCUCAAUCAACUCUAUCCCCAGGGAAACCCCUGGCAUUUUCAACAGCUCGCAGUCAAG | -0.0515 |
| GGUCACGUCUCAAUCAACUCCUAAGAGGGGGGGAAAACCCCUUUGCCCUCAACUUCAACAGCUCGCAGUCAAG | -0.152 |
| GGUCACGUCUCAAUCAACUCUUUCUCCAGGGAAAACCCUGGCUAUGUCAACAGCUCGCAGUCAAG | -0.12 |
| GGUCACGUCUCAAUCAACUCAACUCCCAGGGAAAACCCUGGCAAACUCAACAGCUCGCAGUCAAG | 0.165 |
| GGUCACGUCUCAAUCAACUCAUUUUCCAGGGAAAUCCCUGGUAUAUUCAACAGCUCGCAGUCAAG | -0.275 |
| GGUCACGUCUCAAUCAACUCAUUCUCCAGGGAAAACCCUGGCUUAGUCAACAGCUCGCAGUCAAG | -0.19 |
| GGUCACGUCUCAAUCAACUCUUCCUCAGGAGUUUACUCCUGUUUUUUCAACAGCUCGCAGUCAAG | -0.103 |
| GGUCACGUCUCAAUCAACUCAGUCCCAGGAGUUUACUCCUGUUAAUUCAACAGCUCGCAGUCAAG | 0.0944 |
| GGUCACGUCUCAAUCAACUCAUCGCCAGGAGUUUGCUCCUGCUUAUUCAACAGCUCGCAGUCAAG | 0.155 |
| GGUCACGUCUCAAUCAACUCUAUCUCAGGAGUUUACUCCUGUAUACUCAACAGCUCGCAGUCAAG | 0.284 |
| GGUCACGUCUCAAUCAACUCAUUCUCAGGAGUUUUCUCCUGCAUUUUCAACAGCUCGCAGUCAAG | 0.11 |
| GGUCACGUCUCAAUCAACUCAUCUCCAGGAGUUUCCUCCUGCUUACUCAACAGCUCGCAGUCAAG | 0.123 |
| GGUCACGUCUCAAUCAACUCUAAAGAGGGGGGGAAAACCCCUUUACCCUCAAAAUCAACAGCUCGCAGUCAAG | 0.0957 |
| GGUCACGUCUCAAUCAACUCAGUUUCCAGGGAAAUCCCUGGCAUAUUCAACAGCUCGCAGUCAAG | -0.00908 |
| GGUCACGUCUCAAUCAACUCUUCCUCCAGGGAAACCCCUGGCAAAUUCAACAGCUCGCAGUCAAG | -0.119 |
| GGUCACGUCUCAAUCAACUCUUUUUCCAGGGAAACCCCUGGUUAUCUCAACAGCUCGCAGUCAAG | -0.0792 |
| GGUCACGUCUCAAUCAACUCGUUUUCAGGAGUUUUCUCCUGCUAUUUCAACAGCUCGCAGUCAAG | -0.0347 |
| GGUCACGUCUCAAUCAACUCAACUUCCAGGGAAAGCCCUGGUAAUUUCAACAGCUCGCAGUCAAG | 0.00373 |
| GGUCACGUCUCAAUCAACUCAGUUCCCAGGGAAAUCCCUGGCAUUUUCAACAGCUCGCAGUCAAG | -0.126 |
